From article PMC12040169 (PLOS Biology, 2025)
The other results are listed elsewhere or left out.

system: T1, C. trachomatis L2/434/Bu expressing GFP (CTL2-GFP); set-up: species or system HeLa; C. trachomatis total inclusion area by high-content imaging, normalised to DMSO; conditions: total inclusion area; 28.5 h, 10 µM; inhibitor
T1 construct: L2/434/Bu GFP intracellular growth in HeLa cells
In short: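 Host cell viability was gauged from Hoechst-stained nuclei counts, while chlamydial growth was taken from total inclusion area and inclusion number per well. Cells were fixed and imaged by high-content microscopy once bulk GFP and resorufin fluorescence had been measured.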

Structure (SMILES)	% of control remaining
COC(=O)N1CCC(C(=O)NC(c2ccccc2)c2nc(OC)cc(OC)n2)CC1 (centres unmarked) [CBK059651]	70.5481
CC(CN(C)C(=O)c1cocn1)Oc1ccc(Cl)c(Cl)c1 (centres unmarked) [CBK304285]	136.254
Cc1cc(C)nc(SCC(=O)Nc2ccc(S(=O)(=O)NC3CCCCC3)cc2)n1 [CBK268299]	112.03
O=C1c2ccccc2C(=O)N1Cc1nc2ccccc2c(=O)n1CCCN1CCOCC1 [CBK268463]	89.6135
COCCN1C(=O)CC2(C1=O)C(=O)N(CC(=O)c1ccccc1)c1ccccc12 (centres unmarked) [CBK075875]	91.1192
O=C(Nc1ccc(Cl)cc1)Nc1ccc(OCC(O)CN2CCCCC2)cc1 (centres unmarked) [CBK086101]	77.2559
COc1cncc(-c2cc(N3CCN(C(=O)c4ccco4)CC3)ncn2)c1 [CBK091121]	103.84
C=C(C)Cn1c(SCC(C)C)nnc1-c1ccccc1OC [CBK200071]	107.45
CC(=O)Nc1cccc(-c2cnc(N)c(N3CCC(C(=O)O)CC3)n2)c1 [CBK063657]	119.869
Cc1cc(COc2nccnc2N2CCN(CC3CCCCC3)CC2)no1 [CBK084205]	71.6488
COCCNC(=O)c1cc(-c2ccc(C)cc2)nc2c1cnn2C(C)C [CBK305033]	61.2263
O=C(c1ccco1)N1CCN(c2cc(-c3cc4ccccc4o3)ncn2)CC1 [CBK091114]	129.775
COC(=O)Nc1sc2c(c1C(=O)N1CCOCC1)CCC(C)C2 (centres unmarked) [CBK307413]	27.2239
Cc1ccc(-c2cc(C(=O)NCc3ccc(F)cc3Cl)n[nH]2)cc1 [CBK288102]	90.4811
O=C(O)C1CCCN1S(=O)(=O)c1ccc(Cl)c(Cl)c1 (centres unmarked) [CBK217856]	88.1111
CSc1nc(SCC(=O)N(c2ccccc2)c2ccccc2)c2c3c(sc2n1)CCC3 [CBK267715]	114.875
CC(=O)N1CCc2cc(C(=O)CN3CCC(c4ccccc4)C3)ccc21 (centres unmarked) [CBK282931]	97.6364
COc1ccccc1CC(=O)NCCC(=O)N1CCN(c2ccc(F)cc2)CC1 [CBK298318]	83.6853
Fc1ccccc1CN1CCN(Cc2ccccn2)CC1 [CBK265194G]	86.2653
CCOC(=O)C1CCN(S(=O)(=O)c2cccs2)CC1 [CBK051137]	96.1036
Cc1csc(C(=O)N2CCCC(c3cc(O)cc(C)n3)C2)c1 (centres unmarked) [CBK283423]	74.9787
CCC(=O)Nc1ccc(C(=O)Nc2ccc(S(=O)(=O)N3CCCCC3)cc2)cc1 [CBK269549]	87.3909
Nc1nc(N)nc(Cn2c(-c3nonc3N)nc3ccccc32)n1 [CBK263072]	94.5012
CC(C)n1c(=O)n(CCN2CCCCC2)c2cccnc21 [CBK283932]	89.6907
N#CCCCN1CCC(Oc2nccnc2OCc2cc(Cl)cc(Cl)c2)CC1 [CBK153634]	74.7187
O=c1n(CCCNCc2ccc(Cl)cc2Cl)nc2n1CCCC2 [CBK305382]	86.0001
COc1ccc(Oc2cncc(OC3CCN(CC(=O)Nc4c(C)cccc4C)C3)n2)cc1OC (centres unmarked) [CBK084403]	100.338

Structure (SMILES)	% of control remaining
CCCn1ncc(CN2CCCC(c3cc4cccnc4[nH]3)C2)c1C (centres unmarked) [CBK284957]	95.8907
CCNC(=S)NS(=O)(=O)c1ccc(C)cc1 [CBK288452]	61.6009
Cc1ccc(C(=O)N2CC(=O)N(CCO)C2)cc1 [CBK045864]	73.0167
O=C(c1ccnc2ccccc12)N1CCc2ccccc21 [CBK200283]	89.8363
O=C(O)c1ccc(N2C(=O)CC(S/C(=N\c3ccccc3)Nc3ccccc3)C2=O)cc1 (centres unmarked) [CBK262191]	71.3247
CCc1nc(-c2ccc(C)c(S(=O)(=O)N3CCN(c4ccccc4)CC3)c2)no1 [CBK294434]	115.17
CCc1ccc2oc(-c3ccc(NC(=O)COc4ccc(Cl)cc4Cl)cc3O)nc2c1 [CBK263424]	104.66
Cc1csc(Sc2nc3ccccc3nc2N2CCCC2)n1 [CBK093788]	89.8302
CC(C)Nc1nc(Cl)nc(Nc2ccc(I)cc2)n1 [CBK027685]	86.0749
CC(C)Oc1ncc(C(=O)N(CCC#N)Cc2ccco2)cc1Cl [CBK304908]	51.0588
COc1ccc(S(=O)(=O)N2CCCC(C(=O)NCc3ccc4c(c3)OCO4)C2)cc1Cl (centres unmarked) [CBK268230]	91.3009
COc1ccc(-c2ccc(C(=O)N(C)C)c(N3CCN(C(=O)c4ccco4)CC3)n2)cc1 [CBK106020]	86.7143
COC(=O)CSc1nnc(-c2cc(Cl)ccc2OC)[nH]1 [CBK270248]	112.278
O=C(CCN1C(=O)/C(=C\C=C\c2ccccc2)SC1=S)Nc1cccc(C(=O)O)c1 [CBK264798]	107.787
O=[N+]([O-])c1ccc(O)c(/C=N/C(CO)(CO)CO)c1 [CBK261835]	97.6774
COc1ccccc1N1CCN(CC(=O)NC2CC3CCC2C3)CC1 (centres unmarked) [CBK269162]	118.43
CN(C)S(=O)(=O)c1ccc(C(=O)C2=C(O)C(=O)N(Cc3cccnc3)C2c2ccccc2)cc1 (centres unmarked) [CBK264667]	83.4417
CC(=O)c1ccc(-c2nc(NC(=O)c3cccs3)cnc2-c2ccc(F)cc2)s1 [CBK037558]	96.4707
O=C(O)/C=C\C(=O)Nc1ccc(OCC(=O)O)cc1 [CBK264449]	98.9402
O=C(Cc1cccc2ccccc12)NC(=S)Nc1cccc(C(=O)O)c1 [CBK267471]	103.543
O=C(COc1ccc(Cl)cc1Cl)Nc1cccc(NC(=O)c2ccccc2Cl)c1 [CBK264726]	101.851
CC1CCCC(N2CCN(Cc3ccccn3)CC2)C1 (centres unmarked) [CBK263450]	105.304
O=C(CCC1CCCCC1)N1CCC(c2n[nH]cc2C(=O)N2CCc3ccccc3C2)CC1 [CBK286271]	105.612
CCCn1cc(NC(=O)NC(CC)(CO)c2ccccc2)ccc1=O (centres unmarked) [CBK305060]	80.0637
CCS(=O)(=O)Nc1ccc(C(=O)N2CCN(c3ccccc3)CC2)cc1 [CBK304345]	69.3497
Cc1ccc(OCC(O)Cn2c(=N)n(CCN3CCCCC3)c3ccccc32)cc1 (centres unmarked) [CBK266375C]	115.833
N#CC1=C(SCC(=O)Nc2cccc3ccccc23)NC(=O)CC1c1ccco1 (centres unmarked) [CBK265793]	85.4985

Structure (SMILES)	% of control remaining
Cc1cnn(C2CCN(C(=O)CC3OCCc4ccccc43)CC2)c1 (centres unmarked) [CBK304186]	36.6268
CCOC(=O)Cn1ncc2c3sc(C)cc3n(CC)c2c1=O [CBK284185]	70.3008
Cc1cc(OCC(=O)NN2CCN(C)CC2)ccc1[N+](=O)[O-] [CBK268136]	83.6628
Nc1cc(S(=O)(=O)C(F)(F)F)ccc1C(=O)O [CBK286646]	87.9798
COc1ccc2c(c1)C1(CC(=O)N(Cc3ccc(OC)c(OC)c3)C1=O)C(=O)N2C (centres unmarked) [CBK075157]	82.6262
COc1ccc(CNC(=O)CN2C(=O)[C@@H]3CCCN3C(=O)c3ccccc32)cc1 [CBK286322]	126.706
O=C(NC1CCN(CC(F)(F)F)C1=O)c1cc(Cl)ccn1 (centres unmarked) [CBK305223]	38.7697
Cc1cc(CNS(=O)(=O)c2c(C)noc2C)no1 [CBK062261]	90.549
C[C@@H]1CN2CCCC2CN1Cc1ccc2ncccc2c1 (some centres unmarked) [CBK284555]	59.0472
CCc1nnc(NS(=O)(=O)c2ccc(N/C=C3\C(=O)N(c4ccc(C)cc4)N=C3C)cc2)s1 [CBK262395]	31.4839
O=C(Nc1ccc(Cl)cc1C(=O)O)c1ccccc1 [CBK269993]	102.489
CC(C)Oc1ncc(C(=O)Nc2ccc(OCCC(N)=O)cc2)cc1Cl [CBK305750]	16.6639
Cc1ccc(S(=O)(=O)NCCSc2nnc(Nc3ccccc3)s2)cc1 [CBK266345]	87.5516
CC(C)N(C(=O)CN1C(=O)N2CCN=C2c2ccccc21)C(C)C [CBK284005]	91.3811
Cc1c(C(=O)NCc2ccncc2)nnn1-c1cccc(C(F)(F)F)c1 [CBK107396]	97.3128
CCN1CC2(CCC1=O)CCN(Cc1nncn1C(C)C)CC2 [CBK307460]	39.7939
CCOc1ccc2[nH]c(C(=O)NC3CCCOC3)cc2c1 (centres unmarked) [CBK283114]	106.008
O=C(CSc1nnc(-c2cccc(F)c2)o1)c1ccccc1 [CBK068764]	105.417
CCCc1c(C(=O)N2CCN(c3cnccn3)CC2)cnn1C [CBK305962]	64.2656
O=C(NCCCc1ccccn1)c1cc2ccc(F)cc2[nH]1 [CBK283211]	87.9273
COc1ccc(F)cc1-c1cccc(CC2(C(=O)NC3CCCCC3)CCOCC2)c1 [CBK285541]	96.77
COc1cc(C)c2c(N)c(C(C)=O)sc2n1 [CBK115336]	87.421
Cc1nc(Oc2ccccc2)c2c3c(sc2n1)CCCC3 [CBK131919]	100.329
Cc1ccccc1-c1nnc(NC(=O)c2ccc(N3C(=O)CCC3=O)cc2)s1 [CBK287332]	101.805
Cc1cnc2c(Cl)c(C(=O)NCC3(CN4CCOCC4)CC3)nn2c1 [CBK306918]	61.3974
CN1CCCN(c2ccc(NS(=O)(=O)c3ccc(F)cc3F)c3ccccc23)CC1 [CBK001499C]	8.558
